In article PMC4336329 (PLoS ONE, 2015):
Out of some 310,000 compounds screened, about 14,000 (4.5%) showed an effect of 50% or more. The effect is printed as a negative number. The list shows a part of the results. Where a SMILES comes first, the peptide text is derived from it. [ ]: non-standard residue; d: D form. The star is where a group is joined. ξ: configuration not given here. Tos = Cc1ccc(S(=O)(=O)*)cc1; Inp = O=C(O)C1CCNCC1; ξP = O=C(O)C1CCCN1

Target: human ether-à-go-go-related gene (hERG) potassium channel (human, UniProt Q12809)
Sequence (Q12809 whole entry, looked up): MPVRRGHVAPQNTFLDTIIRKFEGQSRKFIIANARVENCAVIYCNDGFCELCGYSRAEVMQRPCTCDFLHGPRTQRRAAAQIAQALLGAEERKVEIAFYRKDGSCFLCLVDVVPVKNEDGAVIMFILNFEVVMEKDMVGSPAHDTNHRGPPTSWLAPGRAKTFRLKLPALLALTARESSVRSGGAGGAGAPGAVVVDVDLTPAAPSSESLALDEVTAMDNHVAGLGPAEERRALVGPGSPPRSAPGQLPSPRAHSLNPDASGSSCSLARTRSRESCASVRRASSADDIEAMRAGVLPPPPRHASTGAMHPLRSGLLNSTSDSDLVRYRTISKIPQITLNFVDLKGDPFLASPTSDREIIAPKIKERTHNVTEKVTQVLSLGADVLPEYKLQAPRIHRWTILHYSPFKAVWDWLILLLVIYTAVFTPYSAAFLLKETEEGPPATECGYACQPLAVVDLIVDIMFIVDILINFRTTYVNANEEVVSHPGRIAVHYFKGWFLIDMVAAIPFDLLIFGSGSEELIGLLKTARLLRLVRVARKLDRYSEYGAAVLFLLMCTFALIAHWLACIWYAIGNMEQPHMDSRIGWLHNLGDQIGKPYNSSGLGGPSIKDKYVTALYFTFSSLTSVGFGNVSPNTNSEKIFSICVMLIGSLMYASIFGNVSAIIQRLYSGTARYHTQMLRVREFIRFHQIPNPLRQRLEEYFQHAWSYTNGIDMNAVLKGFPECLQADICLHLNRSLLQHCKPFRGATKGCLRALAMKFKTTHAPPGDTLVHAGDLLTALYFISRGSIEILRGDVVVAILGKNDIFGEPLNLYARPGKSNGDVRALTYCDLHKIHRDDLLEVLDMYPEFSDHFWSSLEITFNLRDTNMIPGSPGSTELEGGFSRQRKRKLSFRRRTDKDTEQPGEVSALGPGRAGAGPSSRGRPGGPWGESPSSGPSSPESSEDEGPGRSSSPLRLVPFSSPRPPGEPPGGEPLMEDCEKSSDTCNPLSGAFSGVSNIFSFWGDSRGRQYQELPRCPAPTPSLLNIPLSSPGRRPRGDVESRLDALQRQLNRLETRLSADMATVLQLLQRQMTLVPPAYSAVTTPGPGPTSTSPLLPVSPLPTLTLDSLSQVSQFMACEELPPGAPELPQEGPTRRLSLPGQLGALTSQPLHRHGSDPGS
Assay: primary screen, population patch clamp on CHO cells stably expressing hERG
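Further: peak tail current of the secondary pulse compared with the same well before compound.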

Compound | hERG current change (%, negative = inhibition) at 10uM [%]
COc1ccc(OC)c(/C=C/C(=O)OCC(=O)Nc2ccc(Cl)c(S(=O)(=O)N(C)C)c2)c1 | 26.4
N#CCC(=O)N/N=C\c1ccccc1OC/C=C/c1ccccc1 | 15.1
COc1ccc(OCC(=O)N/N=C(\CCC(=O)O)c2cccs2)cc1 | 15.1
NC(=O)CC(NC(=O)c1cccc(Br)c1)c1ccc(NC2CCN(Cc3ccccc3)CC2)c([N+](=O)[O-])c1 (stereo not drawn) | 6.8
CC(C)=Cc1oc2ccc([N+](=O)[O-])cc2c1N1CCOCC1 | 16.6
CSCCC(NC(=O)c1ccc([N+](=O)[O-])cc1Cl)C(=O)OCC(=O)NC1CCCC(C)C1C (stereo not drawn) | -38.3
CCOc1ccc(NC(=S)NC(C)C(c2ccccc2)N2CCN(C)CC2)cc1 (stereo not drawn) | -58.5
CC1CN(S(=O)(=O)c2ccccc2)C(C)N1C(=O)N1CCOCC1 (stereo not drawn) | 7.79
Cc1cccc(NC(=O)CN(C)C(=O)C2CCCC2)c1C | 8.86
Cc1cc(NC(=O)CSc2nc3c(C)c(C)ccc3cc2C)no1 | -44.6
CCC(=NCCc1c(C)[nH]c2ccc(OC(F)(F)F)cc12)C1=C(O)CC(c2ccccc2)CC1=O (stereo not drawn) | 4.75
CCOC(=O)CCCc1ccc(/C(C)=N/NC(N)=S)cc1 | -7.3
C=CCNc1c2c(nc3ncnn13)CC(C)CC2 (stereo not drawn) | -14.8
CC1CC(C)CN(C(=O)COC(=O)c2ccc3ccccc3n2)C1 (stereo not drawn) | 3.79
COc1ccc(CCN(C)C(=O)c2cnc(C)cn2)cc1OC | 19.6
Cc1cccc(C(c2c(C)nn(-c3ccccc3)c2N)c2c(C)nn(-c3ccccc3)c2N)c1 | -34.9
Cc1cc(NC(=O)CSc2ccc(-c3ccc(Br)cc3)nn2)no1 | 11.1
S=C(NCc1ccccc1)NN1CCOCC1 | 15.5
Cc1cccc(NC(=O)CSc2nnc(-c3ccncc3)n2C)c1 | -33.4
O=C(CSCc1ccc(F)cc1)NCc1ccc(F)cc1 | -24.7
COc1cc(/C=C2\C(=N)N3N=CSC3=NC2=O)ccc1OS(=O)(=O)c1ccccc1 | 4.2
COC(=O)CCC(=O)OC1(C)C(=O)C2=CN(CCN3CCOCC3)C(c3ccc(OC)cc3)=CC2=C(Br)C1=O (stereo not drawn) | -24.3

Compound | hERG current change (%, negative = inhibition) at 10uM [%]
O=C(CN(C(=O)CSc1nc2ccccc2o1)c1ccccc1F)NC1CCCCC1 | 1.79
COc1cc(C(=O)N(C)CCOc2ccccc2)ccc1OCC(=O)Nc1cccc(C(F)(F)F)c1 | -14.2
Cc1ccc(CNC(=O)C2CC(=O)OC23CCCC3)c(C)c1 (stereo not drawn) | -0.109
O=c1c2ccccc2c(/C=N/c2nnc(Cc3ccccc3)s2)c(O)n1-c1ccc(Cl)cn1 | 10.1
COc1ccc(N2CCN(c3nc(NCCc4ccc(OC)c(OC)c4)nc(OC)n3)CC2)cc1 | -78.3
Cc1cc2nc(SCC(=O)O)nc(C)c2cc1C | 9.92
CS(=O)(=O)NNP(=O)(NNS(C)(=O)=O)NC(=O)c1ccc(Br)cc1 | 10.9
O=C(/C=C/Nc1ccc(F)cc1)c1ccc(Oc2ncccn2)cc1 | 17.9
CC1CCC(C(C)C)C(OC(=O)Cn2c(-c3ccccc3)[n+](C)c3ccccc32)C1.[Cl-] (stereo not drawn) | -77.3
O=C(N/N=C\c1cn[nH]c1-c1ccccc1)c1cccs1 | 2.32
O=C(COc1ccc(/C=C\[N+](=O)[O-])cc1)N1CCOCC1 | -17.7
O=c1cc(O)nc(SC23CC4CC(CC(C4)C2)C3)[nH]1 | -0.617
Cc1ccc(S(=O)(=O)c2c(C)cc(C)[nH]c2=O)c(C)c1 | 6.28
Cc1cccc(NC(=S)N2CCN(c3ccccc3)CC2)c1 | 9.39
O=C(c1cccc(S(=O)(=O)Nc2ccc(F)cc2)c1)N1CCOCC1 | 14.4
Nc1c(C(=O)Nc2cccc(F)c2)nnn1-c1ccc2c(c1)OCCO2 | 8.13
CN1CCOCCOCCN(C)C(=O)N2CCOCCOCCN(CCOCC2)C1=O | 8.67
CCC(C)(C(=O)Nc1c(C)cccc1C)N(C)C(=O)c1ccc2ccccc2n1 (stereo not drawn) | 8.52
S=C(NCC1CCCO1)N1CCN(c2nc(-c3ccccc3)cs2)CC1 (stereo not drawn) | -5.89
CN(CC(=O)NCCCN1CCOCC1)S(=O)(=O)c1ccc(F)cc1 | 15.4
O=C(O)CC/C(=N/Nc1ncc(C(F)(F)F)cc1Cl)C(=O)O | 20.6
COc1ccc(CC(=O)NNc2ncnc3c2cnn3-c2ccccc2)cc1 | 7.83

Compound | hERG current change (%, negative = inhibition) at 10uM [%]
CCOC(=O)c1ccc(NC(=O)CSC2=NN3CCCC(=O)N=C3S2)cc1 | 1.3
O=C1N/C(=N\N=C\c2ccccn2)SC1Cc1cccc(SC(F)F)c1 (stereo not drawn) | 1.89
Cc1ccc(Cn2ncn(-c3ccccc3)c2=O)cc1 | 11.1
CCOC(=O)NNC1CC(=O)N(c2ccc(OC)cc2)C1=O (stereo not drawn) | 16.6
CCN(CC)C(=O)CSc1nnc2cc(C)c3ccccc3n12 | 8.77
C/C(Cl)=C\Cn1c(Nc2cccc(C)c2)nc2c1c(=O)n(C)c(=O)n2C | 2.69
Cc1ccc(NC(=O)COc2ccccc2)cc1S(=O)(=O)N1CCCCCC1 | -24.4
CSc1nnc(-c2cccc(NC(=O)c3ccccc3)c2)n1C | -22
CCN(CC)S(=O)(=O)c1cc(NC(=O)C(C)N2CC=C(c3ccccc3)CC2)ccc1C (stereo not drawn) | 0.182
O=C(COc1ccccc1)Nc1nnc(-c2ccc(F)cc2)o1 | -16.4
CCOC(=O)C(NC(=O)Nc1ccc(O)cc1)(c1ccccc1)C(F)(F)F (stereo not drawn) | 9.14
CCOC(=O)c1nn(-c2ccc(Cl)cc2)c2nc(Nc3ccccc3)cc(=O)n12 | 15.2
O=C(Cn1ccc(=O)[nH]c1=O)NCCO | 0.719
Cc1nc(Nc2nc(-c3ccccc3)cc(=O)[nH]2)nc2ccccc12 | -3.73
COc1ccc(/C=C/C(=O)Oc2ccc(C=O)cc2OC)cc1 | 1.92
Nc1c(S(=O)(=O)c2ccccc2)c2nc3ccccc3nc2n1CCN1CCOCC1 | -38.2
COc1ccc(/C=C/C(=O)NCCc2c[nH]c3ccccc23)cc1OC | 3.5
CN(C)CCN(C(=O)c1ccc2c(c1)OCCO2)c1nc2cc3c(cc2s1)OCO3.Cl | -41.9
O=C(c1cn(-c2ccccc2)nc1-c1ccccc1)N1CCN(c2ccccn2)CC1 | -13.6
COc1ccc(C(=O)NCCCNC(=O)c2cccnc2)cc1Br | 3.11
O=C(CN1CCCCCCC1)N/N=C/c1ccc([N+](=O)[O-])o1 | -52.1
CCN(c1ccc(NC(=O)COC(=O)c2ccc([N+](=O)[O-])o2)cc1)C(C)C | 17.2

Compound | hERG current change (%, negative = inhibition) at 10uM [%]
Cc1cccc(NC(=O)CSCC(=O)Nc2sccc2C#N)c1 | -32.2
O=S1(=O)NC(CC2=CCCCC2)C2CCCCC2O1 (stereo not drawn) | 8.16
CCC(C)n1c(=S)[nH]c2ccccc2c1=O (stereo not drawn) | -0.621
CSc1nnc2c(n1)OC(c1ccsc1)N(C(C)=O)c1ccccc1-2 (stereo not drawn) | -30.2
COc1ccc(-c2cc(C(=O)N3CCCCC3)c3ccccc3n2)cc1OC | -7.8
CSC1=NCCN1C(=O)Cc1cccc2ccccc12 | 3.38
O=C(Nc1cc([N+](=O)[O-])ccc1O)NC1CCS(=O)(=O)C1 (stereo not drawn) | 16.8
CC(Sc1nncs1)C(=O)NC1CCCCC1C (stereo not drawn) | 2.1
O=C(NNc1cccc(Cl)n1)Nc1ccc(Cl)cc1 | 8.43
Cn1ccnc1C(=O)c1ccc(Cl)c(S(=O)(=O)N2CCOCC2)c1 | 2.84
COc1ccc(Cl)cc1NC(=O)COc1ccc(S(=O)(=O)N2CCOCC2)cc1C | 10.8
CC(C)NC(=O)c1ccc2c(=O)n(CC3CCCO3)c(=S)[nH]c2c1 (stereo not drawn) | -1.14
Cc1ccccc1-n1c(SCC(=O)N/N=C/c2sccc2C)nc2ccccc2c1=O | -0.988
CC(=O)Nc1ccc(NC(=O)c2ccc(COc3ccc(C)cc3)o2)cc1 | 16.4
Brc1ccccc1-c1nc2c3ccccc3ncn2n1 | -15
CN(C)S(=O)(=O)c1ccc(NC(=O)CN2CCN(c3ccccn3)CC2)cc1 | 13.9
Cc1nnc(Nc2ccc(C(=O)N3CCOCC3)cc2)c2ccccc12 | 7.52
COC(=O)c1ccccc1OC(=O)c1cccnc1 | 13.1
CCCn1c(N)nc2ccccc21 | 8.05
Cc1ccc(S(=O)(=O)N2CCC(C(=O)N3CCCC3C(=O)N[C@@H](CC(C)C)C(=O)NCC(N)=O)CC2)cc1 (stereo partly drawn) ({Tos-Inp}-[ξP]-Leu-Gly-NH2) | -0.797
Cl.Clc1ccc(Nc2nc3cccnc3s2)cc1 | 35
